{
  "source": "the supplement of paper PMC11417369",
  "note": "The list shows a part of the results.",
  "data": [
    {"system": "PfSIP2 AP2 domain 1 (GST-tagged)", "assay": "gcPBM binding intensity (ln(normalized median fluorescence intensity)); higher = stronger DNA binding", "procedure,_shortened": "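Binding intensity values are the highest Masliner-normalised natural-log median intensity among replicate spots of either probe orientation. The binding step lasted 1 h in 1× PBS with 1% milk, 0.2 mg/ml BSA, 0.5% salmon testes DNA and 0.03% Triton X-100, using GST-tagged P. falciparum DNA-binding domains expressed in E. coli on an Agilent 4 × 180k array of primer-extended double-stranded 36-bp intergenic genomic probes plus negative controls. Alexa488 anti-GST antibody and a 488 nm scan detected bound protein.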", "values": [
      {"sequence": "TTCATTTATTTACTTACACACTTTATATATGTGGTT [CACACA_site4901]", "gcPBM binding intensity (ln)": 7.01},
      {"sequence": "TCTATTCAAAATAAAAGTACTAGCATGTGAATTGTT [XGTACX_site5530]", "gcPBM binding intensity (ln)": 6.94},
      {"sequence": "TACAAGTTTTTAAAGTGTACCAAAAAAAAAGAATAA [XGTACX_site979]", "gcPBM binding intensity (ln)": 7.37},
      {"sequence": "ATATATAAAATATACACACATACTGTTCATTTAAAG [CACACA_site4169]", "gcPBM binding intensity (ln)": 6.98},
      {"sequence": "ATCCTACTATGTTATACACACAATTACTTTTTTCTC [CACACA_site3712]", "gcPBM binding intensity (ln)": 7.39},
      {"sequence": "TTACAACAGAATGGTATTTTTTTATTTTAAAGAAAA [TGCATGCA_negctrl_site230]", "gcPBM binding intensity (ln)": 6.71},
      {"sequence": "AATATTTATGTGAAGACACACAACTGTTTATTATAT [CACACA_site3447]", "gcPBM binding intensity (ln)": 6.82},
      {"sequence": "TTTTTTTTTTTTTGGTGTACTTTTTTTAGAACGCAA [XGTACX_site4207]", "gcPBM binding intensity (ln)": 7.58},
      {"sequence": "AAAATTTATATAGGCACACAAATAAATTAATACATA [CACACA_site1418]", "gcPBM binding intensity (ln)": 6.76},
      {"sequence": "AAAAATGAAAGGTGTACACATACAAACATAGAAAGA [CACACA_site5020]", "gcPBM binding intensity (ln)": 7.45},
      {"sequence": "TTTTTTCTTTCTTTCAAACACACATTAATTTTATTC [CACACA_site2733]", "gcPBM binding intensity (ln)": 6.91},
      {"sequence": "ATATTAGAAATATGAATAGAAAGAATATATAAGTAT [CACACA_negctrl_site682]", "gcPBM binding intensity (ln)": 7.15},
      {"sequence": "TGTTCAAATTTATTCGATCTTTATATTTAATAAAAC [CACACA_negctrl_site781]", "gcPBM binding intensity (ln)": 6.83},
      {"sequence": "ATTCTACACCCACATACACACATATATATATATATA [CACACA_site3426]", "gcPBM binding intensity (ln)": 9.66},
      {"sequence": "AGATACTTTCCTCAAACACACAAAACTATACAACAA [CACACA_site1474]", "gcPBM binding intensity (ln)": 7.02},
      {"sequence": "ATATTCTTCTAAAGGCGTACATCTACATTTATGAAA [XGTACX_site2145]", "gcPBM binding intensity (ln)": 7.39},
      {"sequence": "ATTCAGTTCTATAATACACACATATATTGACATTAT [CACACA_site7309]", "gcPBM binding intensity (ln)": 7.17},
      {"sequence": "GTTAGCTCGTTCGGAGCACACACATATATATATATA [CACACA_site8595]", "gcPBM binding intensity (ln)": 9.2},
      {"sequence": "AAGTATGTCGACTGTTGTACTTTTATCATTTATTAT [XGTACX_site1129]", "gcPBM binding intensity (ln)": 7.08},
      {"sequence": "ATATACTATGATAATACATGCGATAATACATTTTTA [TGCATGCA_site387]", "gcPBM binding intensity (ln)": 7.12},
      {"sequence": "GTATGGCGTATCATATGTACTAAAAAAAAATAAAAA [XGTACX_site5101]", "gcPBM binding intensity (ln)": 7.34},
      {"sequence": "AATAAAAAAATGTCACGTACTTATTTTATTAAACCT [XGTACX_site3031]", "gcPBM binding intensity (ln)": 6.91},
      {"sequence": "TATTTATCATCATATTGTACATTATATATATAAAAT [XGTACX_site6675]", "gcPBM binding intensity (ln)": 6.87},
      {"sequence": "TTATATGCTCAATGTTGTACATGTAGATATATATAT [XGTACX_site8211]", "gcPBM binding intensity (ln)": 8.41},
      {"sequence": "ATATATATATATAGTGCACACATATAAAATATATAT [CACACA_site8884]", "gcPBM binding intensity (ln)": 10.1},
      {"sequence": "ATCTGTCGACAGGACAGTACACAGTAGCCAGTAACT [XGTACX_site2001]", "gcPBM binding intensity (ln)": 6.88},
      {"sequence": "ATAAAATATAGATGCACACACATATAGATTTCATAC [CACACA_site7636]", "gcPBM binding intensity (ln)": 7.32},
      {"sequence": "TTTTTTAATTGTGATACGTATATTATTTAATGATAA [GTGCAC_negctrl_site704]", "gcPBM binding intensity (ln)": 7.05},
      {"sequence": "TGTATATTTTTTATTACACACTTTTTACTTTTTAGA [CACACA_site3069]", "gcPBM binding intensity (ln)": 6.76},
      {"sequence": "AGTATATACACGTGCGTGCACAGATATTCTTTTTTT [GTGCAC_site9398]", "gcPBM binding intensity (ln)": 8.32},
      {"sequence": "ATCAAACCATAAAAGAGTACAAAAGGATGATATTTT [XGTACX_site8883]", "gcPBM binding intensity (ln)": 6.85},
      {"sequence": "TATTTTAAAGAGAAAACATGCATTATATAGAACATT [TGCATGCA_site328]", "gcPBM binding intensity (ln)": 7.03},
      {"sequence": "ATGGAAATATATACATGTACATAAATATATATATAT [XGTACX_site8391]", "gcPBM binding intensity (ln)": 9.38},
      {"sequence": "AGTGGACTTTTTTTTTTTTTTTTTTTTTTTTTATTA [CACACA_negctrl_site547]", "gcPBM binding intensity (ln)": 6.8},
      {"sequence": "ATGTTTTGCATATATTATATATTTATTTATTTTTTT [CACACA_negctrl_site729]", "gcPBM binding intensity (ln)": 7.07},
      {"sequence": "AGTAGTCTGGAGAAGAGTACATAGTATCTGGTAACC [XGTACX_site2043]", "gcPBM binding intensity (ln)": 6.98},
      {"sequence": "TATTTATTGTGATACTTATATTATTTTATGATTAAA [CACACA_negctrl_site901]", "gcPBM binding intensity (ln)": 6.83},
      {"sequence": "AGAGAGATGACAAAAAGATGAATAACGTTAAGGGAT [XGTACX_negctrl_site120]", "gcPBM binding intensity (ln)": 7.03},
      {"sequence": "TTGTTTTTCTTTGAATGTACTTAATGATTTCCAATT [XGTACX_site2499]", "gcPBM binding intensity (ln)": 7.07},
      {"sequence": "TCCATATATTTTAAAAGTACACATAAAAATTATTTA [XGTACX_site8127]", "gcPBM binding intensity (ln)": 7.14},
      {"sequence": "AATGGAAAAATAGGCACACACACATATATACATATA [CACACA_site1298]", "gcPBM binding intensity (ln)": 6.99},
      {"sequence": "TAAAATAAAACAAACACACACACACGGACACAAAAA [CACACA_site7754]", "gcPBM binding intensity (ln)": 7.03},
      {"sequence": "ATATAAATAAAATATACACACATACTGTTCATTTAA [CACACA_site7880]", "gcPBM binding intensity (ln)": 7.01}
    ]}
  ]
}
